Assay results from PubChem BioAssay (NCATS).
The list shows a part of the results. Shown are side measurements of this screen, not its main read-out; they come without a call. The list favours compounds with an active or inconclusive main result. The note in brackets gives the kind of curve behind each potency; many fits are weak.

Experiment: qHTS Assay for Lipid Storage Modulators (AID 1519)
Conditions: Drosophila S3 cells, BODIPY lipid droplet/cell ratio, laser cytometry, cells loaded with oleic acid
Procedure, shortened: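 Cells seeded at 5,000 per well were treated with compounds over a concentration series and loaded with oleic acid (400 uM, as added). Lipid droplet fluorescence (488 nm excitation, 500-530 nm channel) was read by laser-scanning cytometry and normalized to 20 uM Triacsin C.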

[1] = measured here: cell count channel max response
[2] = measured here: lipid channel max response
[3] = measured here: lipid (BODIPY) channel AC50
Tags tell the direction and shape of the fitted curve.

For `O=C(Nc1cccc(F)c1)N1CCCC2(CCN(C(=O)c3cnccn3)CC2)C1`, the max response [1] was 10.5%, the AC50 (measured here: cell number channel AC50) was 7.08 µM [rising, single point] and the max response [2] was 20.5%.

For `CSc1ccc2c(c1)N(CC[C@H]1CCCCN1C)c1ccccc1S2`, the max response [1] was -24.8%, the AC50 [3] was 15.8 µM [falling, single point] and the max response [2] was -30.6%.

In the case of `CCNc1ncc2nc(C)c(=O)n(C[C@H]3CCCO3)c2n1`, the max response [1] is reported as 26.6%, the AC50 [3] is reported as 3.16 µM [rising, partial curve, poor fit] and the max response [2] is reported as 34.9%.

In the case of `Cc1noc(C)c1-c1nc(N(C)Cc2ccco2)c2ccccc2n1`, the max response [1] is reported as 11%, the AC50 [3] is reported as 1.12 µM [rising, partial curve] and the max response [2] is reported as 12%.

In the case of `COc1ccc2[nH]cc(CCNc3nc(-c4ccc(C(=O)N(C)C)cc4)nc4ccccc34)c2c1`, the max response [1] is reported as -6.5%, the AC50 [3] is reported as 0.01 µM [rising, full curve, poor fit] and the max response [2] is reported as 3.36%.

With `Cn1c(=O)c(-c2ccc(Cl)cc2)nc2cnc(N3CCNCC3)nc21` the max response [1] was 29.9%, the AC50 [3] was 25.1 µM [rising, single point] and the max response [2] was 36.1%.

In the case of `CC1CCC2C(C)(C)C3CC12CC[C@]3(C)O` (stereo not given in full), the max response [1] is reported as -14.5%, the AC50 [3] is reported as 8.91 µM [rising, single point] and the max response [2] is reported as -10.4%.

With `CC1(C)C=Cc2c(cc3occ(-c4ccc5c(c4)OCO5)c(=O)c3c2O)O1` the max response [1] was 26.5%, the AC50 [3] was 22.4 µM [rising, partial curve, poor fit] and the max response [2] was 45%.

With `O=C(c1cc(C(F)(F)F)cc(C(F)(F)F)c1)N1CCC[C@@]2(CCN(Cc3ccccc3)C2)C1` the max response [1] was 0.753%, the AC50 [3] was 3.55 µM [rising, partial curve, poor fit] and the max response [2] was 6.95%.

With `N#CCCn1c(=O)c(-c2ccc(F)cc2)nc2cnc(Oc3ccccc3)nc21` the max response [1] was 18%, the AC50 [3] was 0.2 µM [rising, full curve, poor fit] and the max response [2] was 26.9%.

For `NC(C(=O)O)C(O)C(=O)O` (stereo not given), the max response [1] was 29.8%, the AC50 [3] was 39.8 µM [rising, single point] and the max response [2] was 46.5%.

For `CC(C)[N+]1(C)C2CCC1CC(OC(=O)C(CO)c1ccccc1)C2` (stereo not given), the max response [1] was 21.8%, the AC50 [3] was 39.8 µM [rising, single point] and the max response [2] was 35.6%.

With `CCNc1ncc2nc(-c3ccc(F)cc3)c(=O)n(C[C@H]3CCCO3)c2n1` the max response [1] was -13.8%, the AC50 [3] was 31.6 µM [falling, single point] and the max response [2] was -44.8%.

In the case of `Cc1ccccc1OCC(O)CO` (stereo not given), the max response [1] is reported as 22.1%, the AC50 [3] is reported as 39.8 µM [rising, single point] and the max response [2] is reported as 31.6%.

With `COc1ccc(-n2c(=O)c(-c3cc(F)cc(F)c3)nc3cnc(N4CCOCC4)nc32)cc1` the max response [1] was 28.6%, the AC50 [3] was 3.55 µM [rising, full curve, poor fit] and the max response [2] was 35.2%.

For `N#CCCn1c(=O)c(-c2ccccc2)nc2cnc(N3CCNCC3)nc21`, the max response [1] was 15.6%, the AC50 [3] was 0.0398 µM [rising, full curve, poor fit] and the max response [2] was 25.8%.

In the case of `CC[C@H](/C=C/[C@@H](C)[C@H]1CC[C@H]2C3CC=C4C[C@@H](O)CC[C@]4(C)C3CC[C@]12C)C(C)C` (stereo not given in full), the max response [1] is reported as -27.5%, the AC50 [3] is reported as 0.001 µM [falling, full curve, poor fit] and the max response [2] is reported as -30.8%.

With `CN(C)Cc1ccccc1-c1cncnc1Nc1ccc(F)cc1` the max response [1] was 19.9%, the AC50 [3] was 15.8 µM [rising, partial curve] and the max response [2] was 32.9%.

With `O=S(=O)(c1ccccc1)N1CCC2(CC1)CN(Cc1ccccc1)C2` the max response [1] was 27.8%, the AC50 [3] was 0.355 µM [rising, full curve, poor fit] and the max response [2] was 36.5%.

With `C[C@H]1C[C@@H]2[C@H]3CCC4=CC(=O)C=C[C@@]4(C)[C@@]3(Cl)[C@@H](O)C[C@]2(C)[C@]1(OC(=O)c1ccco1)C(=O)CCl` the max response [1] was 7.78%, the AC50 [3] was 15.8 µM [falling, single point] and the max response [2] was -37.4%.

In the case of `CN(C)CCOC(C)(c1ccccc1)c1ccccn1` (stereo not given), the max response [1] is reported as 22.2%, the AC50 [3] is reported as 39.8 µM [rising, single point] and the max response [2] is reported as 45.4%.

For `Cc1noc(C)c1C(=O)N1CCC[C@@]2(CCN(Cc3nccs3)C2)C1`, the max response [1] was 25.2%, the AC50 [3] was 0.00562 µM [rising, full curve, poor fit] and the max response [2] was 35.5%.

With `CCNc1ncc2nc(C)c(=O)n(CCOC)c2n1` the max response [1] was 19.8%, the AC50 [3] was 3.55 µM [rising, full curve, poor fit] and the max response [2] was 20%.

With `COc1ccc(-c2nc3cnc(N(C)C)nc3n(C3CC3)c2=O)cc1` the max response [1] was 27%, the AC50 [3] was 3.98 µM [rising, partial curve] and the max response [2] was 35.8%.

In the case of `NC(=O)NC(=O)Cc1ccccc1`, the max response [1] is reported as 29.3%, the AC50 [3] is reported as 39.8 µM [rising, partial curve, poor fit] and the max response [2] is reported as 42.9%.
